The campaign covered roughly 150,000 compounds. About 540 (0.36%) showed an effect of 50% or more. The list shows a part of the results.

This test concerns Plasmodium falciparum. Kind of test: Primary screen in NF54 nanoGlo assay, in single point, at 2uM, 72h; a lower Z score goes with more inhibition. To be noted: timepoint 72 hour. In kind it is functional, Erythrocyte.
What is called % Inhibition is the relative decrease from the control value, in per cent. As to `COC[C@H]1CCN(C(=O)c2coc(COc3cccc(C(F)(F)F)c3)n2)C1`, the “% Inhibition” value was -15% and the Z score is listed as 1.8.
For `CCC(CC)C(NC(=O)N1C[C@@H](c2nnc(C)o2)O[C@@H](C)C1)c1cccs1` (stereo partly specified) the same measures were -4% and 0.68.
Turning to `CCc1cnc(N[C@H]2[C@H]3CCO[C@H]3[C@H]2COC)nc1`, the “% Inhibition” value is reported as -9% and the Z score was 1.5.
The like results for `Cc1nn(C)c2nc(NC[C@H]3CN(S(C)(=O)=O)CCO3)sc12` were, in that order, 17% and -2.18.
For `c1ccc(-c2ncc(CNCCn3cccn3)s2)cc1`, the “% Inhibition” value is -13% and the Z score is listed as 1.71.
The like results for `CC(C)c1nc([C@H](C)n2ccnc2C(C)C)n(-c2ccccn2)n1` were, in that order, -6% and 0.93.
On to `Cc1ccccc1NC(=O)N[C@@H]1CNC(=O)C1`, for which the “% Inhibition” value is recorded as -3% and the Z score came out at 0.38.
The like results for `Fc1ccc2oc(N3CCCO3)nc2c1` were, in that order, -15% and 1.31.
`C#CCN1CCC(C(=O)N2CCCC3CCCC32)CC1` (stereo unspecified): the “% Inhibition” value is -9% and the Z score is given as 0.92.
The like results for `Cc1nnsc1C(=O)Nc1ccc2cc[nH]c2c1` were, in that order, 1% and -0.18.
Take `O=S1(=O)C[C@@H]2[C@H](C1)N(Cc1ccccc1)CCN2Cc1ccc(CO)o1`: the “% Inhibition” value was -8% and the Z score is recorded as 1.13.
For `CCC(=O)N(Cc1cccc(C)c1)c1ccc(CC(=O)NCc2ccccc2)cc1` the same measures were -7% and 0.88.
For `O=C1NC(c2ccccc2)(C(F)(F)F)C(=O)N1C1CCCCC1O` (stereo unspecified), the “% Inhibition” value is recorded as 5% and the Z score was -0.59.
For `Cc1ccccc1CNC(=O)CN1CCC(N(C)CC(=O)NCc2ccccc2C)CC1` the same measures were -6% and 0.54.
As for `COc1ccccc1-c1nnc([C@H]2CCN(Cc3cccc(C#N)c3)C2)o1`, the “% Inhibition” value is on record as -3% and the Z score turned out to be 0.41.
Turning to `Cc1ncsc1C(=O)N1CCC2(CC1)CC(=O)N(C/C=C/c1ccccc1)C2`, the “% Inhibition” value came to 1% and the Z score is given as -0.13.
On to `O=c1c(NC2CCCCC2)nc2ccncc2n1Cc1ccccc1`, for which the “% Inhibition” value is on record as 4% and the Z score is listed as -0.43.
For `Cc1cn(C)nc1C(=O)NC[C@H]1CN(c2nncs2)CCO1` the same measures were -5% and 0.64.
The like results for `C[C@@H](c1ccc(C(=O)NCCc2c[nH]c3ccccc23)o1)N1CCCCC1` were, in that order, 18% and -2.31.
For `C=C[C@](C)(CCOC)C(=O)NCCc1nccn1C` the same measures were -13% and 1.62.
In the case of `FC(F)(F)c1ccnc(N2CC[C@H](c3nnc(-c4ccncc4)o3)C2)n1`, the “% Inhibition” value came to 2% and the Z score is listed as -0.27.
For `Fc1cccc(-c2cn[nH]c2C2CCN(Cc3ccccc3)CC2)c1` the same measures were -10% and 1.29.
For `Cn1ncc(Cl)c1C(=O)NCc1nc(C(C)(C)C)no1` the same measures were -9% and 1.2.
For `Cc1c[nH]c(=O)n1-c1cccc(NC(=O)c2ncoc2-c2ccccc2Cl)c1` the same measures were -8% and 1.51.
On to `CCc1nn(-c2cccc(C)c2)c(N2CCN(C)CC2)c1CN(CC)Cc1cccc(Cl)c1`, for which the “% Inhibition” value was -14% and the Z score is on record as 1.98.
With `Cc1n[nH]c(C)c1-c1ccc(-n2ccnc2)nn1`, the “% Inhibition” value was 5% and the Z score is on record as -0.87.
The like results for `CS(=O)(=O)N1C[C@@H]2CCN(Cc3ccc(F)cc3)C[C@]2(CO)C1` were, in that order, -3% and 0.48.
Take `COC[C@H]1CN(C(C)=O)CC12CCN(C(=O)NCc1ccccc1)CC2`: the “% Inhibition” value is listed as -17% and the Z score was determined as 1.99.
For `Cc1nn(C)c2nc(NCCc3nc(C(C)C)no3)sc12` the same measures were -4% and 0.65.
The like results for `c1c(CN2CCc3[nH]nc(C4CCC4)c3C2)nn2c1CNCCC2` were, in that order, 9% and -1.21.
For the compound `O=C(NCC1CCCCC1)[C@H]1CCCN(c2nnc3ccc(Cl)cn23)C1`, the “% Inhibition” value is reported as -6% and the Z score was found to be 0.61.
As for `O=C(COc1cccnc1)NC[C@H]1COCCO1`, the “% Inhibition” value turned out to be 0% and the Z score was determined as 0.04.
For the compound `Cc1cccc2c1cc(C(=O)NCc1nc(-c3cnccn3)n[nH]1)n2C`, the “% Inhibition” value was 3% and the Z score was -0.49.
For `O=C(O)c1c(NC(=O)C2CCCCC2)sc2c1CCC2` the same measures were -12% and 1.68.
For `O=C(Cc1ccc2c(c1)OCO2)N1CCN(C(=O)c2nc[nH]n2)CC1` the same measures were -4% and 0.78.
In the case of `Cc1cccc(-n2nc3nc(NCC4CC4)nc(-c4ccc(Cl)cc4)c3c2N)c1`, the “% Inhibition” value was -6% and the Z score came out at 0.64.
With `Cc1ccc(O)c(CN(CCC(F)(F)F)C2CCC2)n1`, the “% Inhibition” value was found to be 4% and the Z score is recorded as -0.68.
Take `O=C(NC1CC1)c1nn(-c2cccc(C(F)(F)F)c2)c(=O)n(Cc2ccc(F)cc2)c1=O`: the “% Inhibition” value is reported as -10% and the Z score was determined as 1.36.
For `O=C1COc2ccc(-c3cc(-c4ccccc4)c4c(n3)-c3cc(Cl)ccc3OC4)cc2N1` the same measures were -5% and 0.57.
The like results for `CCc1ccccc1N(C(C)=O)c1nc(CN[C@H](c2ccccc2)c2cccs2)cs1` were, in that order, 26% and -3.47.
The like results for `C[C@H]1Cc2cc(C(=O)NCCCOc3cccnc3)ccc2O1` were, in that order, -11% and 1.74.
On to `Cn1cncc1CCC(=O)Nc1nc(-c2ccc3c(c2)OCO3)cs1`, for which the “% Inhibition” value was -19% and the Z score amounted to 2.64.
On to `COc1cc2c(cc1OC)CN(C(=O)[C@@H]1C[C@@H](NCc3ccc(F)cc3F)CN1C/C=C/c1ccccc1)CC2`, for which the “% Inhibition” value is listed as -13% and the Z score turned out to be 1.5.
The like results for `Cc1ccc(CC2CCN(c3nc(C(N)=O)cs3)CC2)cc1C` were, in that order, -21% and 4.09.
For `CCC(CC)C(=O)NCc1cn([C@H]2CCOC2=O)nn1`, the “% Inhibition” value stood at 1% and the Z score is on record as -0.17.
The like results for `Cc1cc(=O)c(C(=O)NC[C@H](C)n2ccnc2)c(C)[nH]1` were, in that order, 1% and -0.26.
For `COc1ccc(C(=O)Nc2ccc(O)c(C)c2)cc1-c1ccccn1` the same measures were -10% and 0.98.
As to `CS(=O)(=O)Nc1nc2c(s1)C[C@@H](c1ccccc1)CC2`, the “% Inhibition” value is -8% and the Z score stood at 1.06.
Consider `CC(=O)N[C@@H]1C[C@H](CC(C)C)O[C@H](c2cccc(C#N)c2)C1`, for which the “% Inhibition” value came out at 2% and the Z score is reported as -0.34.
For `CCCS(=O)(=O)N1CCc2c(C(=O)N(C)C)nc(C)n2CC1` the same measures were 1% and -0.16.
For `CC(=O)N[C@H]1CCN(C(=O)c2cc(-c3ccc(O)cc3)n[nH]2)C1` the same measures were -3% and 0.53.
For `O=C1NC(O)(C(F)(F)F)C(=O)N2CCCC12` (stereo unspecified) the same measures were 35% and -3.91.
Regarding `COC(=O)c1cc(C)nc2c1c(=O)n(CC(=O)N1CCCCC1)c(=O)n2-c1cccc(OC)c1`, the “% Inhibition” value was -10% and the Z score amounted to 1.28.
For `Oc1cccc(-c2ccc(-c3cn[nH]c3)cc2)n1` the same measures were -4% and 0.53.
Consider `O=C(N[C@H]1CCc2ccccc21)c1ccc(CN2CCOCC2)cc1`, for which the “% Inhibition” value is reported as -13% and the Z score was 2.39.
Take `CCCC(=O)N1CCC(c2nccs2)CC1`: the “% Inhibition” value was -7% and the Z score is 0.97.
For `COc1ccc(CN2C[C@H]3CN(C(=O)C(C)C)C[C@@]3(CO)C2)cc1Cn1cccn1` the same measures were -9% and 1.22.
For `CCOC(=O)N1CCN(C(=O)[C@H](CC(C)C)NC(=O)NCc2ccc(C)cc2)CC1` the same measures were -5% and 0.92.
Consider `O=C(C1CCN(C2CCN(Cc3cc4ccccc4o3)CC2)CC1)N1CCOCC1`, for which the “% Inhibition” value was -20% and the Z score worked out at 1.77.
For `COc1ccc(N2CCN(Cn3c(-c4ccccc4)nsc3=S)CC2)cc1` the same measures were -42% and 4.92.
Consider `O=C(CCCCC1C2NC(=O)NC2CS1(=O)=O)Nc1ccc2c(c1)CCC2` (stereo unspecified), for which the “% Inhibition” value is -8% and the Z score is 1.3.
The like results for `CNC(=O)[C@@H]1CN(S(=O)(=O)CCCCC(F)(F)F)CCO1` were, in that order, -1% and 0.2.
For `COc1ccc(NC2CCN(CCC(F)(F)F)CC2)cn1` the same measures were -9% and 1.41.
For `Cc1cc2c(cc1NS(C)(=O)=O)c1c(n2S(C)(=O)=O)CC(C)(C)CC1=O` the same measures were 3% and -0.44.
Take `Cc1cc(C#N)c(NCC[C@H]2CCCOC2)nc1C`: the “% Inhibition” value is on record as -8% and the Z score is on record as 1.09.
For `Cn1nccc1CNC(=O)[C@]1(c2ccccc2)CCC(=O)NC1`, the “% Inhibition” value is recorded as -7% and the Z score stood at 0.93.
For `C[C@@H](C(=O)Nc1ccc(F)c(Cl)c1)S(C)(=O)=O` the same measures were 2% and -0.23.
For `O=C(CN1CCOC1=O)NC[C@H]1CC(Cc2ccc(F)cc2)=NO1` the same measures were -10% and 1.16.
In the case of `O=C(c1ccc2noc(-c3ccccc3)c2c1)N1CCC1`, the “% Inhibition” value amounted to 3% and the Z score is given as -0.57.
Consider `O=C(C1CCCCC1)N1CCc2cc(S(=O)(=O)N3CCOCC3)ccc21`, for which the “% Inhibition” value is on record as -11% and the Z score is recorded as 1.52.
The like results for `N#Cc1ccc(C(=O)N[C@H]2CC=CC[C@@H]2C(N)=O)cc1` were, in that order, -11% and 1.58.
The like results for `O=C(Cn1cc(Cl)cn1)N(C1CCCC1)[C@H]1CCS(=O)(=O)C1` were, in that order, -19% and 1.63.
On to `Cc1ccc(-c2cc(C(=O)N3CCN(c4cccc(C)c4C)CC3)c(C)[nH]2)cc1C`, for which the “% Inhibition” value is -2% and the Z score was 0.26.
For `Cc1nn(-c2nc3ccccc3s2)c(O)c1C(c1ccccc1Cl)c1c(C)nn(-c2nc3ccccc3s2)c1O` the same measures were 6% and -0.95.
For `CNC(=O)c1sc(NC2CCOCC2)nc1C`, the “% Inhibition” value is -11% and the Z score was 2.16.
The like results for `Cc1ccc(C)c(OCC(=O)N(C[C@H](O)c2ccc(F)cc2)C2CC2)c1` were, in that order, -9% and 1.88.
For `CCn1c(C)nc2cc(NS(=O)(=O)c3ccccc3)cc(C(=O)NCc3cccc(OC)c3)c21` the same measures were 4% and -0.76.
Consider `CO[C@H]1C[C@@H](C(=O)N2CCCc3c2ccc2[nH]cnc32)N(C)C1`, for which the “% Inhibition” value was -3% and the Z score was found to be 0.62.
For `CCCc1nc(CN2CC(n3cc(C)cn3)C2)no1`, the “% Inhibition” value is listed as -16% and the Z score is listed as 2.09.
The like results for `CCC1(CC)CCCN1C(=O)c1nccs1` were, in that order, -11% and 0.94.
Take `COC1C2CC3CN(C(=O)Nc4ccnnc4C)C1C3C2` (stereo unspecified): the “% Inhibition” value is on record as -10% and the Z score came out at 1.58.
For `COc1ccc(CC(=O)Nc2cnc(-c3ccc(C)cc3)nc2)cc1` the same measures were -16% and 1.42.
With `CN(CC(=O)Nc1cccnc1)C1CCCCC1`, the “% Inhibition” value is reported as -14% and the Z score was determined as 1.95.
